{
  "source": "the supplement of paper PMC11417369",
  "note": "± gives the standard deviation of the averaged measurements. Some of the results follow.",
  "data": [
    {"tested_on": "PfAP2-LT AP2 domain (GST-tagged)", "assay": "gcPBM binding intensity (ln(normalized median fluorescence intensity)); higher = stronger DNA binding", "how_it_was_run": "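Plasmodium falciparum DNA-binding domains carrying a GST tag were expressed in E. coli and applied for 1 h, at about 25 μg on average, to an Agilent 4 × 180k array. The array held primer-extended double-stranded 36-bp intergenic genomic probes together with negative controls, and binding took place in 1× PBS with 1% milk, 0.2 mg/ml BSA, 0.5% salmon testes DNA and 0.03% Triton X-100. An Alexa488 anti-GST antibody detected bound protein, and the array was scanned at 488 nm. Binding intensity is taken as the highest Masliner-normalised natural-log median intensity across replicate spots of either probe orientation.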", "values": [
      {"sequence": "TTAAGTCATAAATAAAGTACATAAATATAATATATA [XGTACX_site6304]", "gcPBM binding intensity (ln)": "8.66 ± 0.35"},
      {"sequence": "TCCAATTAAATATATGAACACACATGTGAACTTTCT [CACACA_site9318]", "gcPBM binding intensity (ln)": "8.88 ± 0.44"},
      {"sequence": "TTAAAGCACCCATGCACACACACAAGGGAAAAGAAA [CACACA_site4289]", "gcPBM binding intensity (ln)": "9.49 ± 0.4"},
      {"sequence": "AAGGAATATTAAGTGGGTACTAAAAAAAAATTAATT [XGTACX_site331]", "gcPBM binding intensity (ln)": "8.59 ± 0.57"},
      {"sequence": "TTTTTAATTAACTTTGTAAACTTATATATATATATA [TGCATGCA_negctrl_site311]", "gcPBM binding intensity (ln)": "8.71 ± 0.11"},
      {"sequence": "GAAGTAGATGGAAAAGTGCACTGTAATGGTTATATT", "gcPBM binding intensity (ln)": "9.02 ± 0.42"},
      {"sequence": "TGTATATAGAAACATACACACATATTAATTTTACAT [CACACA_site3126]", "gcPBM binding intensity (ln)": "8.94 ± 0.44"},
      {"sequence": "TTTTTTATTAAAAGCGAAAAAAATGAAAACTTTTTT [GTGCAC_negctrl_site605]", "gcPBM binding intensity (ln)": "7.96 ± 0.45"},
      {"sequence": "GACCCAATGAAAAGGTCACACATTTTTTCTTTTCGA [CACACA_site5074]", "gcPBM binding intensity (ln)": "8.53 ± 0.52"},
      {"sequence": "AAAAATAAAAAGAATTGTACATATAAATCATATACA [XGTACX_site6860]", "gcPBM binding intensity (ln)": "8.64 ± 0.38"},
      {"sequence": "TAAAAATATATAAACAGTACATAAATTAAATAAATA [XGTACX_site6962]", "gcPBM binding intensity (ln)": "8.74 ± 0.45"},
      {"sequence": "TTTTTTCTTTAATACTCAATATGATAAAAGTAACAC [XGTACX_negctrl_site163]", "gcPBM binding intensity (ln)": "8.22 ± 0.39"},
      {"sequence": "AAAGTTTTTACCAAGTGTACATATATATATATATAT [XGTACX_site5786]", "gcPBM binding intensity (ln)": "9.6 ± 0.057"},
      {"sequence": "GTTAAAATTTGTCAATGTACAGAAATAATAAAAAAA [XGTACX_site1879]", "gcPBM binding intensity (ln)": "8.6 ± 0.54"},
      {"sequence": "GTTTATTTATTTTATGTGCACATATAACAAAAAAAA", "gcPBM binding intensity (ln)": "8.55 ± 0.45"},
      {"sequence": "TATTTTTTTTAGCGTACATGCAAAAAAAAAAAAAAA [TGCATGCA_site555]", "gcPBM binding intensity (ln)": "8.22 ± 0.39"},
      {"sequence": "TATTAAATGAAACAAACACACATAGCCTTTAAATAT [CACACA_site1560]", "gcPBM binding intensity (ln)": "8.94 ± 0.36"},
      {"sequence": "ATTTTTTTTTTTATAGTGGAACCACATTTGCCATTT [CACACA_negctrl_site1247]", "gcPBM binding intensity (ln)": "8.77 ± 0.5"},
      {"sequence": "TTAGGACAAAAAAAAATAAAAATAAAATAAAATAAT [CACACA_negctrl_site1613]", "gcPBM binding intensity (ln)": "8.59 ± 0.53"},
      {"sequence": "ATAAAATAAAACAGAGCACACATTTTATTTACATTC [CACACA_site696]", "gcPBM binding intensity (ln)": "8.88 ± 0.42"},
      {"sequence": "AAATTATATATATTTACATGCAATATAATGAAATAA [TGCATGCA_site229]", "gcPBM binding intensity (ln)": "8.66 ± 0.49"},
      {"sequence": "ATATATATATCATATTGTACATATTATTGTATAATC [XGTACX_site5020]", "gcPBM binding intensity (ln)": "8.98 ± 0.42"},
      {"sequence": "TTGTTTTTAAGAAAAACACACACTCCTGTTATTTTA [CACACA_site9230]", "gcPBM binding intensity (ln)": "8.88 ± 0.43"},
      {"sequence": "ATTTTGTATATATTTTGTACATATTTTGTATATATT [XGTACX_site885]", "gcPBM binding intensity (ln)": "9.04 ± 0.42"},
      {"sequence": "AAATATTATACAAAAAAAAAAAAAAAAAAAATATAT [CACACA_negctrl_site52]", "gcPBM binding intensity (ln)": "8.62 ± 0.51"},
      {"sequence": "ATATAAACATGTTTGTGTACGTAATATGAAAAATAA [XGTACX_site8157]", "gcPBM binding intensity (ln)": "8.93 ± 0.44"},
      {"sequence": "GTATGTATAATATACACACTCACAAGCATTCAAATA [CACACA_site267]", "gcPBM binding intensity (ln)": "9.07 ± 0.37"},
      {"sequence": "TGTATGTTTATTTATCGTACATATATATATATATAT [XGTACX_site7315]", "gcPBM binding intensity (ln)": "9.2 ± 0.4"},
      {"sequence": "TTTTATATATTATATACACACATATATATATATATA [CACACA_site2999]", "gcPBM binding intensity (ln)": "9.06 ± 0.3"},
      {"sequence": "AATAAATAAATATATACACACATATATCTGTACATA [CACACA_site9034]", "gcPBM binding intensity (ln)": "9.43 ± 0.39"},
      {"sequence": "AGGAAAAAAAAAATGTGTACTTAAAAAAAAAAAATT [XGTACX_site1471]", "gcPBM binding intensity (ln)": "8.51 ± 0.65"},
      {"sequence": "CGTTTATATTTTAACTGTACTCAAAAAGTGCATTGT [XGTACX_site6072]", "gcPBM binding intensity (ln)": "8.65 ± 0.42"},
      {"sequence": "TTTTATCATATTTATTGTACACATAATATACATATC [XGTACX_site1145]", "gcPBM binding intensity (ln)": "8.99 ± 0.47"},
      {"sequence": "AAATTAGAATTAGGAACACACATATTTATATTTATA [CACACA_site7450]", "gcPBM binding intensity (ln)": "8.68 ± 0.49"},
      {"sequence": "TTTATTCTCCGACACACACACATATATTTATTTATA [CACACA_site7377]", "gcPBM binding intensity (ln)": "9.42 ± 0.33"},
      {"sequence": "ATATATAAAAAATGTGGTACATTCATTTATTATACA [XGTACX_site3495]", "gcPBM binding intensity (ln)": "8.76 ± 0.57"},
      {"sequence": "CATTTTATAAAAAGCACACATATAGTTATATGCACA [CACACA_site3691]", "gcPBM binding intensity (ln)": "8.85 ± 0.36"},
      {"sequence": "TAAATTATAATAAATACACACAAATTATAATTCTAT [CACACA_site3942]", "gcPBM binding intensity (ln)": "8.79 ± 0.37"},
      {"sequence": "TATATATATATACATTGTACATTATTGATTATAACA [XGTACX_site1678]", "gcPBM binding intensity (ln)": "9.06 ± 0.33"},
      {"sequence": "AATATTTTATATAAATGTACATTTATGAATAATATA [XGTACX_site8477]", "gcPBM binding intensity (ln)": "8.44 ± 0.44"},
      {"sequence": "GTGCTAAAAGTATATGCACACACATATATATGCACA [CACACA_site8472]", "gcPBM binding intensity (ln)": "9.42 ± 0.31"},
      {"sequence": "ACAAAGTAAAATAATGCATGTAGGTATACATAATTA [TGCATGCA_site607]", "gcPBM binding intensity (ln)": "8.98 ± 0.4"},
      {"sequence": "TGTTCATTTATTTACTTACACACTTTATATATGTGG [CACACA_site1410]", "gcPBM binding intensity (ln)": "9.23 ± 0.49"},
      {"sequence": "TAAAAGTAGATATATACACACATAAATATAGATGTA [CACACA_site6457]", "gcPBM binding intensity (ln)": "9.07 ± 0.41"}
    ]}
  ]
}
